Measured values published in the CheMixHub viscosity set.
Not every entry of the source has a single result; some have several. This is not the full list of results. The source may hold further records. Values given together are repeats (runs, samples, wells, individuals or studies). Marks in square brackets tell the records apart. The letters are not those of the source and start again with each entry.

ClC(Cl)(Cl)Cl
viscosity
Conditions	298.15 K	303.15 K	308.15 K	313.15 K	318.15 K
101 kPa	0.8876 mPa·s, 0.883 mPa·s, 0.9019 mPa·s, 0.893 mPa·s, 0.893 mPa·s, 0.9019 mPa·s, 0.948 mPa·s, 0.9149 mPa·s, 0.9275 mPa·s, 0.908 mPa·s, 0.905 mPa·s, 0.9088 mPa·s, 0.902 mPa·s, 0.909 mPa·s, 0.902 mPa·s, 0.908 mPa·s, 0.906 mPa·s, 0.9397 mPa·s, 0.883 mPa·s, 0.883 mPa·s, 0.8963 mPa·s, 0.9077 mPa·s, 0.9074 mPa·s, 0.9058 mPa·s, 0.9089 mPa·s, 0.83 mPa·s, 0.9 mPa·s, 0.901 mPa·s [several studies]	0.796 mPa·s, 0.842 mPa·s, 0.906 mPa·s, 0.8535 mPa·s, 0.8702 mPa·s, 0.83 mPa·s, 0.849 mPa·s, 0.881 mPa·s, 0.83 mPa·s, 0.831 mPa·s [several studies]	0.785 mPa·s [study A] and 0.7817 mPa·s [study B] and 0.794 mPa·s [study C] and 0.786 mPa·s [study D] and 0.8162 mPa·s [study E] and 0.8266 mPa·s [study F]	0.796 mPa·s [study A] and 0.745 mPa·s [study B] and 0.7676 mPa·s [study C] and 0.7754 mPa·s [study D] and 0.7477 mPa·s [study E]	0.692 mPa·s [study A] and 0.6866 mPa·s [study B] and 0.699 mPa·s [study C] and 0.691 mPa·s [study D]
101.33 kPa	0.887 mPa·s [study A] and 0.9019 mPa·s [study B] and 0.821 mPa·s [study C] and 0.905 mPa·s [study D]	–	–	–	–
